± gives the standard deviation of the averaged measurements. Some of the results follow.

The test deals with PfAP2-LT AP2 domain (GST-tagged). Description: gcPBM binding intensity (ln(normalized median fluorescence intensity)); higher = stronger DNA binding. The method, boiled down:
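DNA-binding domains from P. falciparum, fused to GST and produced in E. coli, were put on an Agilent 4 × 180k double-stranded probe array for 1 h in 1× PBS holding 1% milk, 0.2 mg/ml BSA, 0.5% salmon testes DNA and 0.03% Triton X-100. Probes were primer-extended, 36 bp long and drawn from intergenic genomic regions, with negative controls included. After Alexa488 anti-GST antibody detection and a 488 nm scan, binding intensity was set as the highest Masliner-normalised natural-log median intensity across replicate spots of either probe orientation.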
“TTTATATGTATTAAGTGTACACATATAATGTGTTTG [XGTACX_site6629]”: the “gcPBM binding intensity (ln)” value amounted to 8.92 ± 0.49.
The result for “TTATTTTTTTTTTATTGTACTAGGAAAATTTCGATA [XGTACX_site702]” reads 8.31 ± 0.45.
Regarding “TAATATTAATCCTAGTGTACATTAATTTATATGTAT [XGTACX_site3583]”, the “gcPBM binding intensity (ln)” value turned out to be 8.73 ± 0.45.
The result for “ATTATATATATATAAACACACAAATATTTTTATATA [CACACA_site5005]” reads 8.71 ± 0.42.
Take “ACCTATATAAGTTATACACACAAATATAGATATATA [CACACA_site7356]”: the “gcPBM binding intensity (ln)” value was 9.05 ± 0.42.
With “TACAGACAGAAATGCACACACATATTTATATTTATA [CACACA_site7139]”, the “gcPBM binding intensity (ln)” value turned out to be 9.35 ± 0.3.
The result for “CTTCCTTAGGAATGTACACACATATATAATATGTTG [CACACA_site461]” reads 8.93 ± 0.38.
The result for “TCTTTGTTTTTTTTTTTTAAACAAAATCATCAAAGG [XGTACX_negctrl_site192]” reads 8.22 ± 0.38; that for “AAGATACACCTTTTTAGTACTTACATTTTTTTTATT [XGTACX_site1373]”, 8.93 ± 0.47; that for “GCGTATACTTGTAACGGTACACAGGAAATTATAGAA [XGTACX_site507]”, 9.05 ± 0.64.
The result for “AATAAATATATATACACACCCATATATATATATATA [CACACA_site2595]” reads 9.73 ± 0.014; that for “TACACTTTTTTTTGTACACACTAAAAAGATTAACAA [CACACA_site6037]”, 8.51 ± 0.4; that for “TAATGTTGTTTCTGAGGTACACAATTTTTTTTATTT [XGTACX_site8035]”, 8.74 ± 0.45.
In the case of “TTAATGAAATATTATACACACAAAAAAATAATTTTA [CACACA_site4231]”, the “gcPBM binding intensity (ln)” value came out at 8.66 ± 0.36.
The result for “TATATATATGGACACACACACACCAAAGCGTAGCGC [CACACA_site4209]” reads 9.66 ± 0.25.
As for “AAAAAATATTTATGTTCACACATTTTATATATGATA [CACACA_site4821]”, the figure is 8.59 ± 0.42; as for “TTTTTTTTTTGATGAGCACACATGTTTTTTCTTAGA [CACACA_site3171]”, 8.75 ± 0.49.
As for “AAATATTTTTAAAGAAGTACTTTTTAAAAATAATCT [XGTACX_site4897]”, the figure is 8.31 ± 0.2; as for “CCAACATAGAGGGGCACACACATATATACCTAAAAA [CACACA_site5088]”, 9.29 ± 0.58.
For “AGATTATAAAATTCTACACACATATATACCTATATA [CACACA_site5848]”, the “gcPBM binding intensity (ln)” value was determined as 9.04 ± 0.42.
The result for “AAAATAATTGTTTACACACCCATTTGTAATTTTACC [CACACA_site3614]” reads 9.05 ± 0.42.
As for “CTGTGTTTTGGTTGTACACACGCTACATTCTATATT [CACACA_site2698]”, the figure is 9.42 ± 0.34; as for “ACCATACAGAATAATGCATGTTCCTTTTTATGAATA [TGCATGCA_site995]”, 8.69 ± 0.36; as for “AAAAAAATAAAGGATATACACACTAATTATATATAT [CACACA_site2812]”, 8.88 ± 0.42.
The result for “TATACTTGTAAATGCACACATAAGATGCGACTAATG [CACACA_site2118]” reads 9.03 ± 0.31; that for “TCTATATCAACCAGTTGTACTGAATTTACTATATTT [XGTACX_site4205]”, 8.69 ± 0.58; that for “TATAAAAGTAGACACACACACATATAAATATAAATA [CACACA_site6567]”, 9.66 ± 0.27.
As for “GTAGACTGAAACCACACACACATATATAAATATATT [CACACA_site6433]”, the “gcPBM binding intensity (ln)” value is 9.68 ± 0.38.
As for “AAAAAAAAAAATGGTTGTACTTTTTTTATTTGGTGC [XGTACX_site4498]”, the figure is 8.6 ± 0.43; as for “ATATTATATTGGATGTTGCACTTAACAAAAGGATAT [GTGCAC_site9478]”, 8.67 ± 0.48; as for “ATAGACTTTTGTTTTGTTTTATTTTATTGTATTGTA [CACACA_negctrl_site618]”, 8.88 ± 0.45.
As for “ATTTACATTATATTGAATATGCCATATTATATTATT [CACACA_negctrl_site811]”, the figure is 8.82 ± 0.47; as for “TCTAACATATTTTTAATACACACTTAAAAAAGTACT [CACACA_site1366]”, 8.59 ± 0.4.
For “AATGCTTTTCATCAAGTGCAATATGTTAATACAAAC [GTGCAC_site9619]”, the “gcPBM binding intensity (ln)” value worked out at 8.64 ± 0.38.
As for “AGAAAAAAAAAAAAAAAACACACGGTACATTCAAAG [CACACA_site2]”, the figure is 8.84 ± 0.43.
As for “TAATTTTCATATTTCTGTACATATATTATAAATATA [XGTACX_site3480]”, the figure is 8.48 ± 0.4.
As for “TAATATATATATATTACACACACGTATTATTAAATA [CACACA_site432]”, the figure is 9.09 ± 0.3; as for TGTATGTATAATTGAGTGCACAGAAAAAAAAAAGAA, 8.88 ± 0.59; as for “TCATATATGGGTAGTATACACACTGTATATTTAGGA [CACACA_site2844]”, 8.86 ± 0.43.
For the sequence “TTTGCCCAAAAAGGTACACACCACAATGTACATAAA [CACACA_site4599]”, the “gcPBM binding intensity (ln)” value was 8.85 ± 0.49.
As to “TTTTATTTAAATACACGTACATAATGTATATATATA [XGTACX_site7160]”, the “gcPBM binding intensity (ln)” value worked out at 8.64 ± 0.39.
The result for “AAAAAAAAAAAACACACACACACAAATATATAAAAA [CACACA_site1171]” reads 9.77 ± 0.31; that for “ATACCTTCTTTTATGTTTAATTAATATACTTTTTAT [CACACA_negctrl_site1557]”, 8.96 ± 0.55.
The result for “GTATAAAAGTTATATACACACAACAGAATTACATAT [CACACA_site6212]” reads 9.21 ± 0.41.
As for “TTTGAAAAAAATTAATGTACATTTGAAATGACATAT [XGTACX_site3902]”, the figure is 8.37 ± 0.43; as for “AATACATACATACATACACACATATAAATATATTAT [CACACA_site7650]”, 9.42 ± 0.38.
With “TACTAATATAATAAAAGTACTTAAATAAATATATGT [XGTACX_site2220]”, the “gcPBM binding intensity (ln)” value was 8.73 ± 0.39.
Consider “GAACATTTCACACAAAAAAAAAAAAATATATATATA [TGCATGCA_negctrl_site518]”, for which the “gcPBM binding intensity (ln)” value came to 8.96 ± 0.28.
As for “ACATGATGTCATAAATGTACGCACACATACATAAAC [XGTACX_site1198]”, the figure is 9.24 ± 0.3.
As for “TCTTTTTAAATATATACACACCGTGTCTACAGATAC [CACACA_site5784]”, the figure is 9.07 ± 0.46; as for “TAAATAAAAAAAAATCGTACATATATTTTATATATG [XGTACX_site3293]”, 8.35 ± 0.51.
As for “TTTTCAAAAATATACACACACATAAATATCTGTATA [CACACA_site4586]”, the figure is 9.35 ± 0.23.
As to “TCGTAATAATAGTTGAGTACGCACTAATATGTCAAT [XGTACX_site643]”, the “gcPBM binding intensity (ln)” value turned out to be 9.09 ± 0.44.
The result for “TATTTACATTTTAGTAGTACATATATGTATATATAT [XGTACX_site6839]” reads 8.86 ± 0.48.
For the sequence “AATTATATGCTTAATACGCACACGGGAAAAAAAAAA [CACACA_site1376]”, the “gcPBM binding intensity (ln)” value worked out at 9.01 ± 0.47.
As for “ACATATCTATCGTTTTTAATTGTATATTATTATAAC [TGCATGCA_negctrl_site144]”, the figure is 8.86 ± 0.38; as for “TGTTTGTAATTATGTATGCACTTTTTTGTATGTGTG [GTGCAC_site9668]”, 9.12 ± 0.42.
The result for “TCTTGTATATGTTAAAGTACACAACAATATATATAT [XGTACX_site6814]” reads 8.7 ± 0.34.
Regarding “TCCCACTGTTATATTGAAAAAAAAAAAAAAAAAAAA [TGCATGCA_negctrl_site288]”, the “gcPBM binding intensity (ln)” value stood at 8.2 ± 0.23.
For “ATATTCTTGTTTAATACACACTGTAGTATTATATAT [CACACA_site4400]”, the “gcPBM binding intensity (ln)” value was 9.08 ± 0.41.
The result for TAATGAGCGCTTGTAGTGCATTATATTCAAAAATAT reads 8.72 ± 0.48; that for “AGAAAAAAACAACATGCACACGCACCCACAAAAAAA [CACACA_site7908]”, 9.51 ± 0.28.
As to “AGATAAAATATATATGCACACACATATATATTTCAT [CACACA_site9183]”, the “gcPBM binding intensity (ln)” value is 9.23 ± 0.33.
The result for “TAATTATTTAAAAAGAGTACATTTTTTTTTTTTTTT [XGTACX_site1060]” reads 8.15 ± 0.4; that for “ATAATTATTTAATATATATATATTATTTCGAATGTT [GTGCAC_negctrl_site688]”, 8.87 ± 0.4; that for “ATTCTATATAAATATACACACATATATAAAATACAT [CACACA_site2293]”, 8.93 ± 0.38.
As for “TTAATAATTAATATATGTACTGATAAATAACATATA [XGTACX_site3966]”, the figure is 8.49 ± 0.28; as for “AATGTACGTTTTATAACACACACACTAATAAAAAAA [CACACA_site9286]”, 9.29 ± 0.25.
The result for “CCACATTAAAAAAAAACACACATATATTATAGATAT [CACACA_site6662]” reads 8.83 ± 0.4; that for “ATCTTCAAAAATATTAGTACACATGTATCATGAATT [XGTACX_site3872]”, 8.8 ± 0.46; that for “TAGATACATACACGCACACACATATATATATATATA [CACACA_site12]”, 10.11 ± 0.035.
For the sequence “CACTAAAATAGACACACACACACACGGATATAAATA [CACACA_site7873]”, the “gcPBM binding intensity (ln)” value stood at 10.3 ± 0.29.
The result for “CTTAAATTTAAGTTCACACATATTGGTCATTTATAT [CACACA_site5006]” reads 8.89 ± 0.45.
With “TTTATTTGTAACGGTTGTACTTGTATATCATTATGA [XGTACX_site4281]”, the “gcPBM binding intensity (ln)” value turned out to be 8.74 ± 0.45.
For the sequence TAGTGATATAATTATGTGCACTTAATACAGGTCGAT, the “gcPBM binding intensity (ln)” value worked out at 9.06 ± 0.39.
The result for “GATATTTTTTTCGAAAGTACAAAAAAAAATATTTCC [XGTACX_site4389]” reads 8.33 ± 0.37.
As for “AAAATTAAAAATAACACACACATATATATATTTATA [CACACA_site2776]”, the figure is 9.21 ± 0.25; as for “ATATATATACCAAGTAGTACATTCTACAACTAATGT [XGTACX_site8653]”, 8.79 ± 0.4.
As for “ATGTATATATATATATGTACTAATTAGTAGTTTACG [XGTACX_site6272]”, the figure is 9.07 ± 0.45; as for “TGTATGTATAAAAACGCATGTATGTATTTTACAATA [TGCATGCA_site767]”, 8.73 ± 0.43.
Regarding “TACTAAGAATTAATATAACAAAATAAAAAAAAAAAA [XGTACX_negctrl_site346]”, the “gcPBM binding intensity (ln)” value was 8.4 ± 0.45.
As for “ATACAGATATATAATACACACATAAATGTAACATTT [CACACA_site5864]”, the figure is 9.23 ± 0.4; as for “TATATAAATATATATGTACACACATATACATGTTGA [CACACA_site9022]”, 8.97 ± 0.38.
The result for ATAATATCTTTATGTGTGCACATATATATATATATA reads 9.82 ± 0.099; that for “TTGTTTATTTTTTATTACTATAAAGATGTTATATAT [CACACA_negctrl_site1506]”, 8.65 ± 0.47; that for “TAAATAATTTATAAGTGTACTATTATTGCACGAATA [XGTACX_site7715]”, 8.54 ± 0.46.
As for “AAAAAAAACAGACACACACACATAAATATATATAAA [CACACA_site148]”, the figure is 9.74 ± 0.36; as for “CATTAGGTCTTTTGTACATGCAAGTGTGTGCGTAAA [TGCATGCA_site255]”, 9.3 ± 0.47.
Regarding “ATGATTTTTTCTGTATGTACATAAAAATAAAATTCT [XGTACX_site5698]”, the “gcPBM binding intensity (ln)” value turned out to be 8.47 ± 0.39.

The values above are taken from the supplement of paper PMC11417369.
